This passage reports binding signal results from paper PMC7819943, “Rice protein-binding microarrays: a tool to detect cis-acting elements near promoter regions in rice”.

Some of the results follow.

In the assay the target is T1, OsWOX13 (Oryza sativa, UniProt Q5QMM3 1-267).
T1 sequence: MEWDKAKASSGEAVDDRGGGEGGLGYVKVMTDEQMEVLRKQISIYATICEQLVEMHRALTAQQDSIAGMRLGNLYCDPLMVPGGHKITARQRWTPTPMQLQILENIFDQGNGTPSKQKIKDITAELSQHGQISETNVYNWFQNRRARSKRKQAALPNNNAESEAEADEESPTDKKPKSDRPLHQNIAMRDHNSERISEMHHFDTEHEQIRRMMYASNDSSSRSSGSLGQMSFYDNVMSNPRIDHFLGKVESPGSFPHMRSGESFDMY
Nature of the assay: protein-binding microarray (RPBM); PBS, 2% BSA, 51.3 ng/ul salmon testes DNA, 50 uM zinc acetate, 200 nM TF, 25 C, 1 h; high values mean tight binding. The settings on record: protein: recombinant; tags: N-terminal polyhistidine and DsRed monomer fusion (pET32a); label: CyDye5-dUTP incorporated in the synthesized complementary strand; 3' TTTTT single-stranded linker to array surface; dsDNA, one strand shown. The method, boiled down:
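The binding signal is fluorescence intensity per array feature (arbitrary units). Readings came from an Axon 4000B scanner after a washed, 2% BSA-blocked, double-stranded custom Agilent array had been incubated for 1 h at 25 °C with 200 nM protein and 50 µM zinc acetate. The protein was a Ni–NTA-purified transcription factor fused N-terminally to polyhistidine and DsRed, expressed in E. coli BL21-CodonPlus.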
For the sequence “CGAGATTGGGAAAAGCTGGCTCTATCTCCCTAGAGCAAAGCGGAGTCACCTAGTGCAG”, the binding signal was 4280 fluorescence intensity (a.u.).
Take “TTAAATTGAAACATATGAGATCACTTGAAAGCTAATGAGTCGGAGTCACCTAGTGCAG”: the binding signal was 29300 fluorescence intensity (a.u.).
As for “AATTTAACAAATTTTCTTCAGAATTTCTGTCGAGATGTATCGGAGTCACCTAGTGCAG”, the binding signal is 3730 fluorescence intensity (a.u.).
“GATCGATTTGGTTTTGTTGATTTGATCTGGCCGGACAAGGCGGAGTCACCTAGTGCAG”: the binding signal was 3980 fluorescence intensity (a.u.).
For “ATTTTGTGGTAATCTATACAAATTACTATATCCCCAATTGCGGAGTCACCTAGTGCAG”, the binding signal is 4670 fluorescence intensity (a.u.).
As for “CAAAATAGACAATTTTGAAAGTTAGAGACTAAATCAATACCGGAGTCACCTAGTGCAG”, the figure is 6780 fluorescence intensity (a.u.).
For the sequence “GTCCAATCTACTGGTCATCATCTTGCCAGTGTGCCATGTGCGGAGTCACCTAGTGCAG”, the binding signal is 3320 fluorescence intensity (a.u.).
With “ATTCAATTAGCCTATATAATAACGCGTAACCACAGCCTCTCGGAGTCACCTAGTGCAG”, the binding signal was 20300 fluorescence intensity (a.u.).
Regarding “ACTGTGATTGCCACGGAGGATATGCTTCCATATGGGCCCCCGGAGTCACCTAGTGCAG”, the binding signal is 11000 fluorescence intensity (a.u.).
As for “GTCTATCTATCTATCTATCCATCTACTCACTCCATCCTAACGGAGTCACCTAGTGCAG”, the figure is 3170 fluorescence intensity (a.u.); as for “TCTCTCCTGATTAGCCATGAGCAAGATGATGATCACCAGCCGGAGTCACCTAGTGCAG”, 8700 fluorescence intensity (a.u.).
As to “CACTTCAATTATTTAAAGTAGTTCTTTTGCCTAAGGGTAGCGGAGTCACCTAGTGCAG”, the binding signal was 11100 fluorescence intensity (a.u.).
As to “TTCAAATCACAATTACTACTCCATTAGCATATCTGAAACACGGAGTCACCTAGTGCAG”, the binding signal is 6020 fluorescence intensity (a.u.).
To “AGGTTGATGAAGTTTTATAGAATTGACCTGGAGGGCCATGCGGAGTCACCTAGTGCAG” belongs 4200 fluorescence intensity (a.u.).
Consider “AGAGGATTGAAGAAAGAATCCCATAGTGATCGATCGAGACCGGAGTCACCTAGTGCAG”, for which the binding signal is 4050 fluorescence intensity (a.u.).
To “TAAAATTGAACTTATTTTGGGACAGGGCAGCAGCAGTGAGCGGAGTCACCTAGTGCAG” belongs 14000 fluorescence intensity (a.u.).
In the case of “TCTTGACAAACTTAGCGACAAAATTTACCTAGCTGCTGTGCGGAGTCACCTAGTGCAG”, the binding signal is 4740 fluorescence intensity (a.u.).
To “TCTGGTTGATTGATCGATTTGGGGAATTGGGGATCTAGCTCGGAGTCACCTAGTGCAG” belongs 38600 fluorescence intensity (a.u.).
To “ATTATTCAATTACATTTGATGAAATTTTGAAAAGTTTTAGCGGAGTCACCTAGTGCAG” belongs 28700 fluorescence intensity (a.u.).
To “CTGGAAATTTCTTTCCTGATTTAATAAGCATGTACTCCCTCGGAGTCACCTAGTGCAG” belongs 9170 fluorescence intensity (a.u.); to “GGGGTGATTATGATCCAGGAATGGTGCGCTGTGGTGGATTCGGAGTCACCTAGTGCAG”, 17200 fluorescence intensity (a.u.); to “ATTCAAGATTGGATGAAGGATGACACCTCGACGTAGATATCGGAGTCACCTAGTGCAG”, 7320 fluorescence intensity (a.u.).
Take “CTAAATTTGATAAATATATAAGAAATCGTACTAAAATTTTCGGAGTCACCTAGTGCAG”: the binding signal was 6380 fluorescence intensity (a.u.).
